Publication PMC6127106
These are yes or no findings as the source states them, for the method shown. Some binding calls cover weakened binding; strength is not graded here.

Amino acid sequences for entries named in this document (tags omitted). A change or cut given only in a name is not applied to a line headed by its entry.
UniProt P08514: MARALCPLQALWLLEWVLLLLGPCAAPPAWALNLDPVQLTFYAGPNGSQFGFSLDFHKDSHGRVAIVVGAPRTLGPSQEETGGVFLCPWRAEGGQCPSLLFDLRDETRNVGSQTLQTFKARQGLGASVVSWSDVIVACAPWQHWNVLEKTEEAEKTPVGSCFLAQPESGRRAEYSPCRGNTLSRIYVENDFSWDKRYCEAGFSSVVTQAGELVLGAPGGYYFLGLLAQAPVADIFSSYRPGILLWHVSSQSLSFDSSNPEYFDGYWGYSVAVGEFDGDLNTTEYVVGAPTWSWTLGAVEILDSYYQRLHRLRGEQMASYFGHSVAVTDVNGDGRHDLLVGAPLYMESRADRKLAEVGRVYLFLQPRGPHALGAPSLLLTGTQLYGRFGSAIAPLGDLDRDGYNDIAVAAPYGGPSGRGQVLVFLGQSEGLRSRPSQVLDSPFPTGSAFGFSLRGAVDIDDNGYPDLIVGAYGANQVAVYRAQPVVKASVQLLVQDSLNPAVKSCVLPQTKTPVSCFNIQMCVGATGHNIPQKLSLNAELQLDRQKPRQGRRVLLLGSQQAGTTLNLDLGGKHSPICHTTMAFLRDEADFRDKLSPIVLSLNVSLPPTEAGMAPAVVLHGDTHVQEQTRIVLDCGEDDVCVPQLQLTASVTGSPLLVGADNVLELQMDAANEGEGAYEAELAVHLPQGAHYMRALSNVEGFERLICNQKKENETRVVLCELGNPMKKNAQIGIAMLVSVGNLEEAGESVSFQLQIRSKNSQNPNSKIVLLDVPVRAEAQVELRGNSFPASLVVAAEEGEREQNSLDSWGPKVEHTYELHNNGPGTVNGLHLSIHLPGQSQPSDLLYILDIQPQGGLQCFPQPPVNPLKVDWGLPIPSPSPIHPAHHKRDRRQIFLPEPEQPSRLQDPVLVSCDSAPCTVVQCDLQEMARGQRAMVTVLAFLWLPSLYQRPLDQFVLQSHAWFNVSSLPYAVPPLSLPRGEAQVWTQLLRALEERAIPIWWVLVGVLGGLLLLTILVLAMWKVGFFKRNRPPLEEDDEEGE
UniProt P05106: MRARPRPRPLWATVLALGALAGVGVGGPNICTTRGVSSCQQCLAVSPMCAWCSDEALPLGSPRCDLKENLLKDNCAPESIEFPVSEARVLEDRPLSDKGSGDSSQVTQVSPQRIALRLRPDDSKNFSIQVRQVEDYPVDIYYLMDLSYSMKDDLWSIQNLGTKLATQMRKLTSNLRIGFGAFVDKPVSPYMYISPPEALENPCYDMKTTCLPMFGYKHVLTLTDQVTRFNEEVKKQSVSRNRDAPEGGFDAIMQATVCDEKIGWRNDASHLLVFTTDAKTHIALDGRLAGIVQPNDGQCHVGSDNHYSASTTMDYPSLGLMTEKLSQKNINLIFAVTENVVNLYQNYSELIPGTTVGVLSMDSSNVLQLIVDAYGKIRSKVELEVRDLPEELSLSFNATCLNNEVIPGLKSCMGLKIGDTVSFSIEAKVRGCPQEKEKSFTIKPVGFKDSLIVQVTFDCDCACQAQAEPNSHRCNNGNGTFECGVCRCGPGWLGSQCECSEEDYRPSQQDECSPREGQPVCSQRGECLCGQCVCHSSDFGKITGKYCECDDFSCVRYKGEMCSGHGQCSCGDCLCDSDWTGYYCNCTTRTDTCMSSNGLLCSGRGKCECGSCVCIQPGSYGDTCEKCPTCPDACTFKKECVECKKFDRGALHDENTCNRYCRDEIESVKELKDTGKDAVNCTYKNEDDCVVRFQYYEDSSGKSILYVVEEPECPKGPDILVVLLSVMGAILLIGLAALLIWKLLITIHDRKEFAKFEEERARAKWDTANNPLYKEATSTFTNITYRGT
UniProt Q9QUM0: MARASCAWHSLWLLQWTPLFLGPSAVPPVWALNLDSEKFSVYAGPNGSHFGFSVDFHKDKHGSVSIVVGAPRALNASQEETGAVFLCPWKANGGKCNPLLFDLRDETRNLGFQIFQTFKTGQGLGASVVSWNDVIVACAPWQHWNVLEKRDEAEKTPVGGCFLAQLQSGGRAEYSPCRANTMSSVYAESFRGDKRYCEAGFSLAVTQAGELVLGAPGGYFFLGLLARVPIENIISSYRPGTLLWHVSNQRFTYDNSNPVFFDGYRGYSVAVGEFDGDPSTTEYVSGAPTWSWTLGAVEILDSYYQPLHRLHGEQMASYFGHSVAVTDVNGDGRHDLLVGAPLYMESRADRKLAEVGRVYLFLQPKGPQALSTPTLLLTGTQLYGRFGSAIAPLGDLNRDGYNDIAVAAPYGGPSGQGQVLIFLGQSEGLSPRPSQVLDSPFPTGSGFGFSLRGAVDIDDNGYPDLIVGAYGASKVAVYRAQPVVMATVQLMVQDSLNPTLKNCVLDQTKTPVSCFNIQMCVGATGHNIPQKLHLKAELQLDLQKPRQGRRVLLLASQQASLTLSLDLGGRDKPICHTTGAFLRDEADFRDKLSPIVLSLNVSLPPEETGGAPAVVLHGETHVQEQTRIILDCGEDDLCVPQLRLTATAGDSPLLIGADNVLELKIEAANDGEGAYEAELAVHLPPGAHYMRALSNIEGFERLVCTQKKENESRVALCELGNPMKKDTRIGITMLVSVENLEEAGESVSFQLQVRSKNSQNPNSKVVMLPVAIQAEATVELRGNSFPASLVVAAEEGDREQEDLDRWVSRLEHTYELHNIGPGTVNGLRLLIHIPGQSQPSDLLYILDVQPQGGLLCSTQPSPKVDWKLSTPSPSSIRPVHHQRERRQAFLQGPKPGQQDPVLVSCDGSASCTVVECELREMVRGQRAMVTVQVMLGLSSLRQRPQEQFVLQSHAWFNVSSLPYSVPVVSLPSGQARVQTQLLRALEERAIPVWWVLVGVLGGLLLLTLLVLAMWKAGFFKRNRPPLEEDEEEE
UniProt O54890: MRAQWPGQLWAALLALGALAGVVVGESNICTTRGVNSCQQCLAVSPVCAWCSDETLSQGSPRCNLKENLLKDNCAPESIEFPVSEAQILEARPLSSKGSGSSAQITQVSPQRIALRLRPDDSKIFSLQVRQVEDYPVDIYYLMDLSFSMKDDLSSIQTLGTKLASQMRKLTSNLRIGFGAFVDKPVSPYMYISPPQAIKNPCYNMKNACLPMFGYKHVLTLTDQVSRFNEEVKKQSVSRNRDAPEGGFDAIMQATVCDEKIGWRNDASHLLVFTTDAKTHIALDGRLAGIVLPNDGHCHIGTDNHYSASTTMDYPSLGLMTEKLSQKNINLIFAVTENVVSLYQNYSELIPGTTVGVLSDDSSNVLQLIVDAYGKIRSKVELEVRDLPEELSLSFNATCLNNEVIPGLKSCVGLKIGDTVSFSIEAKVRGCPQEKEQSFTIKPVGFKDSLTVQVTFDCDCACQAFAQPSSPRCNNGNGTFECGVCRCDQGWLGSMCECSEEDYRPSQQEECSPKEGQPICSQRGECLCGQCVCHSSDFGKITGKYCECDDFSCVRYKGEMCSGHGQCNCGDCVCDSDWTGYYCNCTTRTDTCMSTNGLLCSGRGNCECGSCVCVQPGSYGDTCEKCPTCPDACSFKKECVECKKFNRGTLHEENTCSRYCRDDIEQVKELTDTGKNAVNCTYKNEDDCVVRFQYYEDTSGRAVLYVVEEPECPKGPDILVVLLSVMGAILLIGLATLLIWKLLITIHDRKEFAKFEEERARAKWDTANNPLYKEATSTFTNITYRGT
UniProt P06756: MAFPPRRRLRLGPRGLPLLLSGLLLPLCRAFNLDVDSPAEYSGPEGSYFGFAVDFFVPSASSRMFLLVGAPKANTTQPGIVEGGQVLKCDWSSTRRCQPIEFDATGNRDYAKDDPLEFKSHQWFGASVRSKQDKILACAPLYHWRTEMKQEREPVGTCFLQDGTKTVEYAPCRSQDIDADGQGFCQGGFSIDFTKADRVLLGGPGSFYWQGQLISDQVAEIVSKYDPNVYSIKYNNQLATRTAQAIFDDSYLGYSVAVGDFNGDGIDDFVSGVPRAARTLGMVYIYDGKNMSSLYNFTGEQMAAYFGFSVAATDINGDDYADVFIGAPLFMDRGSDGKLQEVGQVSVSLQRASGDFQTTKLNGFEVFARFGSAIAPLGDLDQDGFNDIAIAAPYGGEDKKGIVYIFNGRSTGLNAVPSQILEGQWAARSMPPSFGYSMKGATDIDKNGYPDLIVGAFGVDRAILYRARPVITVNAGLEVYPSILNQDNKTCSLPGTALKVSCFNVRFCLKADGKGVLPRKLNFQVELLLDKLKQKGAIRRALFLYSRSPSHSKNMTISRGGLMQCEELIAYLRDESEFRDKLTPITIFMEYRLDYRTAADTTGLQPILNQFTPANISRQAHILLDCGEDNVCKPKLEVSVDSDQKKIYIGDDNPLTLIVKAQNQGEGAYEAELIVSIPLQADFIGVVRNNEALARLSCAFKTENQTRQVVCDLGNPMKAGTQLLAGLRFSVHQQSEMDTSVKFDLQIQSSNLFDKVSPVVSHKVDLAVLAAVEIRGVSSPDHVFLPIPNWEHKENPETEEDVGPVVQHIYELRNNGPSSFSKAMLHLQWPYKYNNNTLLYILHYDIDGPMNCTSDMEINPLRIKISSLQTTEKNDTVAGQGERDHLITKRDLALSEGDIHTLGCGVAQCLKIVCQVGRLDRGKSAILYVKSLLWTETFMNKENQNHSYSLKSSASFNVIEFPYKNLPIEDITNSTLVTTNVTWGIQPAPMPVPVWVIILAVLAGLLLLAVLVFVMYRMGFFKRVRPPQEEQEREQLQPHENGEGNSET
UniProt P08648: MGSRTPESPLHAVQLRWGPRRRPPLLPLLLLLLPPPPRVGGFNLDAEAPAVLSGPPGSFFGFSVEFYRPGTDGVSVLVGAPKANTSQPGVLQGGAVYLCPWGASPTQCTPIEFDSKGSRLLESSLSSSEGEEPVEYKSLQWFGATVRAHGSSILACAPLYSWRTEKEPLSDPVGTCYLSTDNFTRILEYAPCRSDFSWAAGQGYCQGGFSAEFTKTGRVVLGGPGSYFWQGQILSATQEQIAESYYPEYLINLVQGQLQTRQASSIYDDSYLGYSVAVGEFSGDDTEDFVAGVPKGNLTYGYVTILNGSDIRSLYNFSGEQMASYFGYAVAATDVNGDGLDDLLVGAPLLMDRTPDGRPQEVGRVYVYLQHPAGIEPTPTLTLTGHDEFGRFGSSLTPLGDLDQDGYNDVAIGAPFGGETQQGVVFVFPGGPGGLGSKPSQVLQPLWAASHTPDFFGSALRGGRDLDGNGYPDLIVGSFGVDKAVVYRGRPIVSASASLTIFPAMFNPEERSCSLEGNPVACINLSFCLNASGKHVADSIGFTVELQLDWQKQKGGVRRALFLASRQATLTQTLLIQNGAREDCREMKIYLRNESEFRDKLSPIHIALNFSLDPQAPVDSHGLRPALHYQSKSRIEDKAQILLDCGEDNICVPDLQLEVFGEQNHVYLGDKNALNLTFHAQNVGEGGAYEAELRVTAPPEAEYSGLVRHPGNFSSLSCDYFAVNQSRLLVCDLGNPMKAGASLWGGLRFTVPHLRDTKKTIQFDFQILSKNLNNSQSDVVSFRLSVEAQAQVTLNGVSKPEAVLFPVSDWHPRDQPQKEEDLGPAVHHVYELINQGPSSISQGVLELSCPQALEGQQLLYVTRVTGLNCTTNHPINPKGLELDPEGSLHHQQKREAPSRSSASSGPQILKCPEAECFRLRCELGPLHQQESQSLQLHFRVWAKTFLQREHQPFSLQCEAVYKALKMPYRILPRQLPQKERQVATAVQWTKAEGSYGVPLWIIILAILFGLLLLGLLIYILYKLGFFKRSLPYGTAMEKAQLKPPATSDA

Key:
[1] = molecular target: αIIbβ3 integrin on human platelets (human (endogenous in human platelets)) (UniProt P08514+P05106); assay: flow cytometry on cells; human gel-filtered platelets (1 × 10^8) with increasing doses of apoA-IV or BSA, then FITC-Fg 15 min at room temperature; TRAP 250 µM; fixed; only the binder purified
[2] = molecular target: T1, mouse platelet αIIbβ3 integrin (β3 integrin on mouse platelets) (mouse (endogenous in mouse platelets)) (UniProt Q9QUM0+O54890); assay: condition: only quiescent platelets (not activated by ADP or collagen); flow cytometry on cells; as a2, but quiescent (resting) platelets in mouse PRP
[3] = molecular target: T1, mouse platelet αIIbβ3 integrin (β3 integrin on mouse platelets) (mouse (endogenous in mouse platelets)); assay: flow cytometry on cells; mouse PRP; platelets activated with ADP (20 or 50 µM) or collagen (5 µg/mL), fixed, goat anti-apoA-IV (N-20) and FITC anti-goat IgG; β3-deficient platelets and anti-β3 mAb M1 as controls
[4] = molecular target: αIIbβ3 integrin on platelets used as BFP targets (UniProt P08514); assay: Biomembrane Force Probe adhesion frequency assay; biotinylated apoA-IV on a streptavidin probe bead; ADP-treated platelet as target; 1 mM Ca2+; 50 cycles a pair; complete inhibition by mAb M1; only the binder purified
[5] = molecular target: GPIb-IX complex expressed on CHO cells (UniProt P07359); assay: Biomembrane Force Probe adhesion frequency assay; biotinylated apoA-IV on a streptavidin probe bead; cells of lines expressing αIIbβ3, GPIb-IX or αMβ2 as targets; complete inhibition by mAb M1; only the binder purified
[6] = molecular target: αIIbβ3 integrin expressed on CHO cells (UniProt P08514); assay: as above
[7] = molecular target: αIIbβ3 integrin on platelets used as BFP targets (UniProt P08514); assay: Biomembrane Force Probe adhesion frequency assay; as a5, but resting platelets as target; 1 mM Ca2+; only the binder purified
[8] = molecular target: recombinant αVβ3 ectodomain with a hexa-Histidine tag at the C-terminus (UniProt P06756); assay: Biomembrane Force Probe adhesion frequency assay; biotinylated apoA-IV on a streptavidin probe bead; beads with purified integrins as targets; 1 mM Ca2+; complete inhibition by mAb M1; both purified
[9] = molecular target: recombinant α5β1-Fc ectodomain (UniProt P08648); assay: as above

B1: recombinant human apoA-IV (ligand, UniProt P06727 21-396)
chain: EVSADQVATVMWDYFSQLSNNAKEAVEHLQKSELTQQLNALFQDKLGEVNTYAGDLQKKLVPFATELHERLAKDSEKLKEEIGKELEELRARLLPHANEVSQKIGDNLRELQQRLEPYADQLRTQVSTQAEQLRRQLTPYAQRMERVLRENADSLQASLRPHADELKAKIDQNVEELKGRLTPYADEFKVKIDQTVEELRRSLAPYAQDTQEKLNHQLEGLTFQMKKNAEELKARISASAEELRQRLAPLAEDVRGNLRGNTEGLQKSLAELGGHLDQQVEEFRRRVEPYGENFNKALVQQMEQLRQKLGPHAGDVEGHLSFLEKDLRDKVNSFFSTFKEKESQDKTLSLPELEQQQEQQQEQQQEQVQMLAPLES
With B1 as the binder, how does the binding [1] read?
The binding was “binds”.

B2: mouse plasma apoA-IV (protein, UniProt P06728 21-395)
chain: EVTSDQVANVVWDYFTQLSNNAKEAVEQFQKTDVTQQLSTLFQDKLGDASTYADGVHNKLVPFVVQLSGHLAQETERVKEEIKKELEDLRDRMMPHANKVTQTFGENMQKLQEHLKPYAVDLQDQINTQTQEMKLQLTPYIQRMQTTIKENVDNLHTSMMPLATNLKDKFNRNMEELKGHLTPRANELKATIDQNLEDLRRSLAPLTVGVQEKLNHQMEGLAFQMKKNAEELQTKVSAKIDQLQKNLAPLVEDVQSKVKGNTEGLQKSLEDLNRQLEQQVEEFRRTVEPMGEMFNKALVQQLEQFRQQLGPNSGEVESHLSFLEKSLREKVNSFMSTLEKKGSPDQPQALPLPEQAQEQAQEQAQEQVQPKPLES
Which results are given for B2?
binding [2]: no binding; binding [3]: binds

B3: C-terminal biotinylated recombinant human apoA-IV (apoA-IV-GGC) (ligand, UniProt P06727 21-396)
chain: EVSADQVATVMWDYFSQLSNNAKEAVEHLQKSELTQQLNALFQDKLGEVNTYAGDLQKKLVPFATELHERLAKDSEKLKEEIGKELEELRARLLPHANEVSQKIGDNLRELQQRLEPYADQLRTQVSTQAEQLRRQLTPYAQRMERVLRENADSLQASLRPHADELKAKIDQNVEELKGRLTPYADEFKVKIDQTVEELRRSLAPYAQDTQEKLNHQLEGLTFQMKKNAEELKARISASAEELRQRLAPLAEDVRGNLRGNTEGLQKSLAELGGHLDQQVEEFRRRVEPYGENFNKALVQQMEQLRQKLGPHAGDVEGHLSFLEKDLRDKVNSFFSTFKEKESQDKTLSLPELEQQQEQQQEQQQEQVQMLAPLESGGC
modifications: maleimide-PEG2-biotin on the C-terminal cysteine of the GlyGlyCys linker
For B3, which binding [4] is on record?
The binding was “binds”.

What about the binding [5] of the same binder?
Its binding is “no binding”.

What about the binding [6] of the same binder?
The binding was “binds”.

And the binding [7]?
Its binding is “binds weakly”.

What about the binding [8] of the same binder?
Its binding is “no binding”.

What about the binding [9] of the same binder?
Its binding is “no binding”.
